Data: US20090036364A1

Biological target: amylin receptor (rat nucleus accumbens membranes) (rat)
Test: displacement of 125I-amylin on rat nucleus accumbens membranes

Q: With “hAmylin(1-7)-11,18Arg-sCT(8-27)-Amylin(33-37) (sequence not shown) (peptide; modification not given)” as the substance, how does the AMY RBA read?
A: The AMY RBA was 0.03.
